# Data reported in PubChem BioAssay (NCATS).
# The inconclusive results got no clear call from the source; some entries with a clear call stand among them for comparison. For some assays here: No potency is given beside an inconclusive call; the fits are too rough. The source made the active and inactive calls. Unless noted, calls follow the shape of the dose curve; as a rule, active = well fitted curve in the direction sought with a large enough effect; inconclusive = small, poorly fitted or top-dose-only effect, or another doubt; inactive = no such curve, though single readings can be large; an effect the other way counts as inactive or inconclusive.
# How the values were obtained:
# [1] = target: Tyrosyl-DNA phosphodiesterase 1 (Homo sapiens) (UniProt Q9NUW8); experiment: Confirmation Assay for Inhibitors of Tyrosyl-DNA Phosphodiesterase (TDP1) (AID 489007); settings: recombinant human TDP1 enzymatic activity, dose-response; also: potency is read from the fitted curve at half-maximal effect; nearly all actives have a fitted effect of over 40% in size
# Procedure, shortened: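 AlphaScreen assay of tyrosine-FITC cleavage from a biotinylated DNA substrate (15 nM) by E. coli-expressed human Tdp1 (1 nM). Sequence: compound preincubation 15 min, reaction 5 min, bead detection 10 min, all at room temperature. No-enzyme wells give maximum signal.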
# [2] = target: Rap guanine nucleotide exchange factor 3 (Homo sapiens) (UniProt O95398); experiment: Confirmatory qHTS for antagonist of cAMP-regulated guanine nucleotide exchange factor 3 (EPAC1) (AID 1645880); settings: EPAC1 Rap1B-BODIPY-GDP exchange, fluorescence; series mostly up to 115 µM; also: nearly all actives have a fitted effect of over 55% in size; also: potency is read from the fitted curve at half-maximal effect
# Procedure, shortened: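 Released BODIPY-GDP fluoresces less than Rap1-bound BODIPY-GDP; the signal is followed at 480/540 nm at 5-min intervals over 30 min, after 5 min at room temperature. Reactions contain 100 nM EPAC1, 250 nM RAP1B-BODIPY-GDP and 50 uM GDP; results are normalized to ATA and DMSO.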
# [3] = target: Ubiquitin carboxyl-terminal hydrolase 1 (Homo sapiens) (UniProt O94782); experiment: Inhibitors of USP1/UAF1: Pilot qHTS (AID 504865); settings: purified USP1/UAF1, Ub-rhodamine cleavage fluorescence; series mostly up to 54.9 µM;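 also: rhodamine fluorescence freed from ubiquitin-rhodamine substrate followed over time; potency is read from the fitted curve at half-maximal effect; nearly all actives have a fitted effect of over 35% in size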
# Procedure, shortened: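 USP1/UAF1 complex at 1 nM preincubated 15 min at room temperature with compound, then Ub-Rho substrate added at 150 nM final. Fluorescence (480/540 nm) read kinetically in 50 mM HEPES pH 7.8, 0.5 mM EDTA, 1 mM TCEP, 0.1 mg/ml BSA, 0.01% Tween-20.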
# [4] = target: Vitamin D3 receptor (Homo sapiens) (UniProt P11473); experiment: qHTS for Inhibitors of the vitamin D receptor (VDR): Hit Validation using a Fluorescein Assay (AID 602200); settings: VDR-coactivator binding, fluorescein fluorescence polarization; series mostly up to 57.1 µM; also: potency is read from the fitted curve at half-maximal effect
# Procedure, shortened: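 Fluorescence polarization (Ex 495 nm/Em 520 nm) read after 2 h at room temperature, reporting disruption of binding between 1.5 uM VDR-LBD, liganded by 5 uM LG19078, and 5 nM fluorescein-labelled SRC2-3 coactivator peptide (final concentrations).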
# [5] = qHTS for Inhibitors of the vitamin D receptor (VDR): Hit Validation using a Texas Red Assay (AID 602201); settings: VDR coregulator binding, Texas Red fluorescence polarization, agonist-bound VDR ligand-binding domain; series mostly up to 57.1 µM; also: potency is read from the fitted curve at half-maximal effect
# Procedure, shortened: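 Fluorescence polarization (Ex 595/Em 615 nm) of Texas Red (7 nM) with 1.5 uM VDR-LBD and LG19078 (final concentrations). Compounds were incubated for 2 hours at room temperature.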
# [6] = target: Vitamin D3 receptor (Homo sapiens) (UniProt P11473); experiment: qHTS for Inhibitors of the vitamin D receptor (VDR): Hit Validation using a Beta-Lactamase Assay (AID 602202); settings: VDR beta-lactamase reporter cells, FRET ratio, cells co-treated with VDR agonist LG190178; series mostly up to 46.1 µM; also: potency is read from the fitted curve at half-maximal effect
# Procedure, shortened: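 Stably transfected HEK293 cells express a VDR–GAL4 DNA-binding-domain fusion driving a UAS beta-lactamase reporter, stimulated by agonist LG190178. Compounds were added 4 h after plating and incubated 18 h. A FRET beta-lactam substrate was then added for 2 h and cleaved substrate emission read at 447 nm.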
# [7] = qHTS for Inhibitors of the vitamin D receptor (VDR): Hit Validation using a Cytotoxicity Assay (AID 602204); settings: cytotoxicity counter-screen, cell viability; series mostly up to 48.3 µM; also: nearly all actives have a fitted effect of over 75% in size
# Procedure, shortened: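 First, 20,000 cells are dispensed per well. Next comes a 4 h incubation, then compound addition and an 18 h incubation. Finally, ATP-based luminescent reagent is added and plates are read after 30 min.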
# [8] = NFAT Signaling Pathway (AID 444; active = well fitted curve in either direction with a large enough effect, not every such curve was filed as active; inconclusive = small, poorly fitted or top-dose-only effect, or another doubt;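 also: carbachol stimulus at about its EC50 of 1 µM final; % is scaled to controls: 0 for no effect and ±100 for the full control effect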); settings: Jurkat NFAT-bla M1, carbachol, beta-lactamase ratio, 5 h; at 17.2 µM (top of the series) unless noted
# Procedure, shortened: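 Jurkat cells carrying an NFAT-driven β-lactamase reporter and co-transfected muscarinic M1 receptor were treated with compound plus carbachol (1 uM final, an EC50 level) for 5 h at 37 °C. CCF4 loading followed for 1 h at RT; 460/530 nm ratio gave %activity.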
# [9] = qHTS Assay for Identification of Small Molecule Agonists for Hypoxia Response Element Signaling Pathway (AID 914; active = well fitted activation curve with a large enough effect in the signal ratio, with a control signal flat, not every such curve was filed as active; inconclusive = small, poorly fitted or top-dose-only effect, or effect the other way, or a change in a side signal; the % refers to the signal ratio; also: top concentration of the series differs between compounds; % of control where 0% means no effect); settings: ME-180 (cervical carcinoma) HRE-bla reporter, beta-lactamase ratio, CoCl2, 17 h; activation: stronger effect = higher value
# Procedure, shortened: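 Cells were plated overnight, pin-dosed with compound in a titration series, co-stimulated with EC50 CoCl2 and incubated 17 hours at 37 degrees Celsius. CCF4 substrate was then loaded, and AC50 values came from the 460nm/530nm ratio.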
# [10] = qHTS for Inhibitors of WRN Helicase: Thiazole Orange DNA Binding Counterscreen (AID 720499); settings: thiazole orange DNA binding displacement, fluorescence; series mostly up to 57.1 µM;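 also: drop in dye fluorescence marks compound binding to DNA; potency is read from the fitted curve at half-maximal effect; nearly all actives have a fitted effect of over 60% in size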
# Procedure, shortened: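 Counterscreen to remove nonspecific DNA binders from WRN helicase hits. Compounds were incubated 15 min at room temperature with 50 nM DNA and 100 nM ThO, then fluorescence was recorded (480 nm excitation, 530 nm emission).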
# [11] = target: 3',5'-cyclic-AMP phosphodiesterase 4B (Homo sapiens) (UniProt Q07343); experiment: qHTS Assay for Inhibitors of PDE-IV (AID 607; active = well fitted activation curve with a large enough effect in the main read-out, with a control signal flat, not every such curve was filed as active; inconclusive = small, poorly fitted or top-dose-only effect, or effect the other way, or a change in a side signal; also: potency is read from the fitted curve at half-maximal effect); settings: HEK293 ACTOne CNG channel cells, membrane potential fluorescence; activation (PDE inhibition): at 22.9 µM (top of the series)
# Procedure, shortened: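 ACTOne HEK293 cells carry a modified cAMP-gated CNG channel and express endogenous PDE4; plated 1000 cells/well, compounds up to 22.9 uM final. Membrane-potential dye fluorescence (ex 535/em 590) was read; parental cells received 10 uM forskolin + 100 uM RO 20-1724.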
# [12] = target: DNA polymerase eta (Homo sapiens) (UniProt Q9Y253); experiment: qHTS for Inhibitors of Polymerase Eta: Confirmatory Assay for Cherry-picked Compounds (AID 720502); settings: Pol eta primer extension, TAMRA/BHQ fluorescence, 10 min; also: potency is read from the fitted curve at half-maximal effect
# Procedure, shortened: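 The reaction starts with 50 nM final labeled DNA substrate added to Pol eta (10 nM) that had sat with compound for 15 min. TAMRA emission at 598 nm is read at 0 and 10 min.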
# [13] = target: DNA polymerase iota (Homo sapiens) (UniProt Q9UNA4); experiment: qHTS for Inhibitors of Polymerase Iota: Confirmatory Assay for Cherry-picked Compounds (AID 720496); settings: Pol iota primer extension, TAMRA/BHQ fluorescence; also: potency is read from the fitted curve at half-maximal effect
# Procedure, shortened: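 Kinetic fluorescence, 0 → 10 min, ex 525/em 598 nm. Pol iota 10 nM, 15 min RT preincubation with compound, then 50 nM (final) TAMRA/BHQ-2 primer-template substrate.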
# Tags tell the direction and shape of the fitted curve.
# UniProt O95398, sequence (O95398 whole entry, looked up): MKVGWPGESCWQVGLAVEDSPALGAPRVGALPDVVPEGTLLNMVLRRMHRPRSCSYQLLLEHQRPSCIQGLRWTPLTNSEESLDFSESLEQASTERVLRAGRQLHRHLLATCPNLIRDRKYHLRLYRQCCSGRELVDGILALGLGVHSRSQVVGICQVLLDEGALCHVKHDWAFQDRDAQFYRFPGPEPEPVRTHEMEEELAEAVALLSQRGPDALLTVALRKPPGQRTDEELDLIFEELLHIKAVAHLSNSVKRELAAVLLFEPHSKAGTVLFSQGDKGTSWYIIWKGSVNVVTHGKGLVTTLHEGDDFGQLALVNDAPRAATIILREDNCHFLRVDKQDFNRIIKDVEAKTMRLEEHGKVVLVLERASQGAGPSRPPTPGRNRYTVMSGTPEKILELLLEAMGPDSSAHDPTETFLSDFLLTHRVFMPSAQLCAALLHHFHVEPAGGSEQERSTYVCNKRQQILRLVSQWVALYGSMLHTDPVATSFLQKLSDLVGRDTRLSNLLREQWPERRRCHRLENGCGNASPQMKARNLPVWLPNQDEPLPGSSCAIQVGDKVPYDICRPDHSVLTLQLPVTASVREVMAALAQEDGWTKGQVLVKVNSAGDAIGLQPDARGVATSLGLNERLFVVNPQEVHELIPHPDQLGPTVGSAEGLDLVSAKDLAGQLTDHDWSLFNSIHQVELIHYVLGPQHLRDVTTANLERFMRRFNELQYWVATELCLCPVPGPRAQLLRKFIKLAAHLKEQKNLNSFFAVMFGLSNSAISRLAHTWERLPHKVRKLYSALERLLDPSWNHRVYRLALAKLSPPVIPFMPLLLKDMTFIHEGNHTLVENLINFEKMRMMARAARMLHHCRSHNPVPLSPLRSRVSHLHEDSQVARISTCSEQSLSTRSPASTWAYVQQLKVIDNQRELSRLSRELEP
# UniProt P11473, sequence (P11473 whole entry, looked up, the tested form may be a part): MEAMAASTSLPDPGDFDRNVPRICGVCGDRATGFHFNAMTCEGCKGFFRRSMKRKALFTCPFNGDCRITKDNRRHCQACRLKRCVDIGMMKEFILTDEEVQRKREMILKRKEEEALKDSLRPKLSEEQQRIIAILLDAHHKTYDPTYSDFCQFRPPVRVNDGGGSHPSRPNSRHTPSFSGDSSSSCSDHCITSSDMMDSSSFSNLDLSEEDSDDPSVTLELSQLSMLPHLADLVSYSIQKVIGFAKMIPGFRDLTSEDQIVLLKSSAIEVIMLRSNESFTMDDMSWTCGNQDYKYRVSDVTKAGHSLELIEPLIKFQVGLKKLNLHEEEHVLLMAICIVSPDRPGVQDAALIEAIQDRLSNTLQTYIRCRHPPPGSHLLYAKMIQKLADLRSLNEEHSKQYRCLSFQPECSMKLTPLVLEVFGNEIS
# UniProt O94782, sequence (O94782 whole entry, looked up): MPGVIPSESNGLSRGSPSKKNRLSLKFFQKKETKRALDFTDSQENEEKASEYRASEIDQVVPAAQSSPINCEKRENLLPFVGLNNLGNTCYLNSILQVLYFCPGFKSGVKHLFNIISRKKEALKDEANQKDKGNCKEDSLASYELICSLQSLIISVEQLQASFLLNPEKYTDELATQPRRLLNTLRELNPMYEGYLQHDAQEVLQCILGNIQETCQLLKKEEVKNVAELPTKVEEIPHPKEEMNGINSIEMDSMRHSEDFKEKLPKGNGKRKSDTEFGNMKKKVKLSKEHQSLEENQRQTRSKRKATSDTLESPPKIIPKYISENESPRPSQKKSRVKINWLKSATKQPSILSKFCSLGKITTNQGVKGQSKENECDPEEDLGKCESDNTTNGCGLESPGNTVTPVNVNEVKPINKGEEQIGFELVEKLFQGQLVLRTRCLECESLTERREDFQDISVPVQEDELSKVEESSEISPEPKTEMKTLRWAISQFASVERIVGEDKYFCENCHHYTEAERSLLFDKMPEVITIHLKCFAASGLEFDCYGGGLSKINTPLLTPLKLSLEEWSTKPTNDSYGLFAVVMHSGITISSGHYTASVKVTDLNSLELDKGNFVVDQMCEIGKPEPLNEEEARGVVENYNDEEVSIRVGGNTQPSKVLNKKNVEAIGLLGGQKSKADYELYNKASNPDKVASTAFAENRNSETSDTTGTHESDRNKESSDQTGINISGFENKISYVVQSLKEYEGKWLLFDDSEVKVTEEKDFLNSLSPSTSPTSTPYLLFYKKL
# UniProt Q9Y253, sequence (Q9Y253 whole entry, looked up): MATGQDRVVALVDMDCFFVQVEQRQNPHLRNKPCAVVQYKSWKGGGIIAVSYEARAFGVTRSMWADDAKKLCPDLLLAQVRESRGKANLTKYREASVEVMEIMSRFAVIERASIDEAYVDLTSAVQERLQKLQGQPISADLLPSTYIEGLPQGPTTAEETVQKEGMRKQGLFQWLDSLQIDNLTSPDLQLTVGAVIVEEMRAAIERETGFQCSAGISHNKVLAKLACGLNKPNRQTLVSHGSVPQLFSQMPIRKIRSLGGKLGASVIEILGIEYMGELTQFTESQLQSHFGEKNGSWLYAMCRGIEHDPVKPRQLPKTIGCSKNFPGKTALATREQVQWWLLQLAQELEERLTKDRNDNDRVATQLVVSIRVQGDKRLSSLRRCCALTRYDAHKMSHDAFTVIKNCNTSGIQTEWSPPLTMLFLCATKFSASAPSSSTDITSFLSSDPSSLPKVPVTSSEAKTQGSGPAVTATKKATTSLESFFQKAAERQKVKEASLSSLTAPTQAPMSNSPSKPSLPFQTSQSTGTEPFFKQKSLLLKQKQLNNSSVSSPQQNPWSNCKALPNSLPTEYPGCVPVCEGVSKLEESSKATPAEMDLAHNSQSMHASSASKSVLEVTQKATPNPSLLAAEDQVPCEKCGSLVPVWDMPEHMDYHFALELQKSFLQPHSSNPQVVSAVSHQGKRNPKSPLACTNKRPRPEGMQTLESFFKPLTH
# UniProt Q9UNA4, sequence (Q9UNA4 whole entry, looked up): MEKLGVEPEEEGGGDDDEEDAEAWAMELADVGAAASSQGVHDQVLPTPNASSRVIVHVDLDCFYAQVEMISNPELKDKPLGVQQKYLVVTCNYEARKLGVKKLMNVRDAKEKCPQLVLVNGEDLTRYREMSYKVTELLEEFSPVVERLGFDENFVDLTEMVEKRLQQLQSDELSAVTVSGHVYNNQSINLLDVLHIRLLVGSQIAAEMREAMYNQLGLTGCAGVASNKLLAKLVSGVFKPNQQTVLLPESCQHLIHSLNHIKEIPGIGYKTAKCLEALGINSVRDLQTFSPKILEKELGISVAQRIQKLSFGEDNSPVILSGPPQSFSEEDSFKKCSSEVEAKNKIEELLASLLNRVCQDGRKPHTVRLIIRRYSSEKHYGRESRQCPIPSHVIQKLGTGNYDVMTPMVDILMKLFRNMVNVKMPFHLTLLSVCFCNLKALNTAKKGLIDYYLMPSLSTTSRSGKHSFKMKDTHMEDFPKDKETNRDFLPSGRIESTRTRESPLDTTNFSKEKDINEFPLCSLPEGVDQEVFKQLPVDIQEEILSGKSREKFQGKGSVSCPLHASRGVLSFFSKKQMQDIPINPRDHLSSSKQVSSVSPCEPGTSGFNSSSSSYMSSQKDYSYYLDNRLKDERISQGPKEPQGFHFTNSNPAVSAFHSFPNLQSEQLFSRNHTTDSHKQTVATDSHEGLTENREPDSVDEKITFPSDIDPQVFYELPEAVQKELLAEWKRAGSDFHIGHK
# UniProt Q9NUW8, sequence (Q9NUW8 whole entry, looked up): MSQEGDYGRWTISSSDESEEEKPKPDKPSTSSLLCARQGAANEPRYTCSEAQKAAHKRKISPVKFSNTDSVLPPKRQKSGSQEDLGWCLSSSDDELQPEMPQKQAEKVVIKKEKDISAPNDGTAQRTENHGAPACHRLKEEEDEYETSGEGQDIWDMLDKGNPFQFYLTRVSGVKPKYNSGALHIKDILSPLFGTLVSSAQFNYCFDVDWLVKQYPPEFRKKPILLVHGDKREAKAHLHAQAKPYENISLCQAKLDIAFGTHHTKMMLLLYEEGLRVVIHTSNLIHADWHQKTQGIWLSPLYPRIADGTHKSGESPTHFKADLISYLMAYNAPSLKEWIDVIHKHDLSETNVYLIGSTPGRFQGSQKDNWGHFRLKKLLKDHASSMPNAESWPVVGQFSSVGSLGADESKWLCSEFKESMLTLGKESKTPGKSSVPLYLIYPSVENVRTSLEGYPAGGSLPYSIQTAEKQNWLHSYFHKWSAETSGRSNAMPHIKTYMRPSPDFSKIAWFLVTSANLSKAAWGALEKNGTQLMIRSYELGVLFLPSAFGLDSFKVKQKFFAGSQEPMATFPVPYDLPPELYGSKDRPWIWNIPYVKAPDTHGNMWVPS
# UniProt Q07343, sequence (Q07343 whole entry, looked up): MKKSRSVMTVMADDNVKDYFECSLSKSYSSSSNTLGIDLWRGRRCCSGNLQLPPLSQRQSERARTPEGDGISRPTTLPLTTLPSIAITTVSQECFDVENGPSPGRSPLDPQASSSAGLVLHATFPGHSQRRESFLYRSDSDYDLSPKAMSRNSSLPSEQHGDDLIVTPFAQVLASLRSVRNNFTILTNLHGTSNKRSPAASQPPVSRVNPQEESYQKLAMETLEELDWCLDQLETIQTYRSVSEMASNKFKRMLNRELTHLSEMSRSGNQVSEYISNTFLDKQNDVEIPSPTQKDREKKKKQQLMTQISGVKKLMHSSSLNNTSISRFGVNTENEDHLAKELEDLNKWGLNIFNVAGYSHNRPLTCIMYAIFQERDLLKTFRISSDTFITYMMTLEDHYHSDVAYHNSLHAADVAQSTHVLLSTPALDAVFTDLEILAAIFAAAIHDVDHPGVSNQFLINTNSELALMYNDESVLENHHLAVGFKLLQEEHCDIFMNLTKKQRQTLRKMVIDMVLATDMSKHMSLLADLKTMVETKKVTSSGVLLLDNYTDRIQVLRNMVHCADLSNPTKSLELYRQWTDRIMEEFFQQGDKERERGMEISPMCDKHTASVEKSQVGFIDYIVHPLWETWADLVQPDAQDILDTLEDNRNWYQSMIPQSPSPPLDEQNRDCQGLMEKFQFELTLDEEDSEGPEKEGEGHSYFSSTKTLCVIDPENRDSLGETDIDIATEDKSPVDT
structure (smiles),measurement,setting,value
O=C(CSc1nc(-c2ccc(F)cc2)nc2ccc(F)cc12)Nc1cccc(C(=O)O)c1,Potency,[1],"inconclusive [inhibitor, single point]"
same,Potency,[2],"inconclusive [inhibitor, partial curve]"
COC(=O)c1c(OC)cc2c(c1C)Oc1c(Cl)c(O)c(Cl)c(C)c1C(=O)O2,Potency,[3],active: 56.2 µM
same,Potency,[2],"inconclusive [inhibitor, partial curve, poor fit]"
Cc1ccc(/C=C/C(=O)Nc2ccc([N+](=O)[O-])c(NC(=O)/C=C/c3ccc(C)o3)c2)o1,Potency,[2],"inconclusive [inhibitor, partial curve]"
COc1cc(-c2coc3cc(OCc4ccccc4)c(OC)c(O)c3c2=O)cc(O)c1OC,Potency,[3],"inconclusive [inhibitor, partial curve, poor fit]"
same,Potency,[2],inactive
Cc1[nH]n(-c2ncc(-c3ccccc3)s2)c(=O)c1C(c1ccc(Br)cc1)C(C#N)C#N (configuration not stated),Potency,[4],"inconclusive [inhibitor, partial curve, poor fit]"
same,Potency,[5],inactive
same,Potency,[6],"inconclusive [inhibitor, single point]"
same,Potency,[7],inactive
same,Potency,[2],active: 12.6 µM
O=c1c(-c2cc(F)cc(F)c2)nc2cncnc2n1Cc1ccccc1Cl,"activity change, negative = inhibition",[8],inactive: -19.2% [at 7.69 µM]
same,activation,[9],inconclusive: -22.7%
same,Potency,[2],inactive
COc1ccc(S(=O)(=O)CC(=O)c2cc3cc(Br)ccc3oc2=O)cc1,Potency,[5],"inconclusive [inhibitor, partial curve]"
same,Potency,[2],active: 50.1 µM
CC1=NOC(=O)/C1=C\c1ccc(-c2ccc(Cl)cc2Cl)o1,Potency,[5],"inconclusive [inhibitor, full curve, poor fit]"
same,Potency,[6],"inconclusive [inhibitor, single point]"
same,Potency,[7],"inconclusive [cytotoxic, single point]"
same,Potency,[10],"inconclusive [inhibitor, partial curve]"
same,Potency,[2],active: 15.8 µM
Cc1cc(NS(=O)(=O)c2ccc(NC(=O)COc3c(C)cc(Br)cc3C)cc2)no1,Potency,[2],inactive
COc1ccccc1-c1ccc2ncnc(N(C)Cc3ccco3)c2c1,Potency,[11],"inconclusive [rising, single point]"
same,Potency,[2],"inconclusive [inhibitor, partial curve, poor fit]"
O=C(Nc1ccccc1Cl)/C(Cl)=C(\Cl)S(=O)c1ccccc1 (configuration not stated),Potency,[4],active: 3.16 µM
same,Potency,[5],"inconclusive [inhibitor, full curve, poor fit]"
same,Potency,[6],active: 3.66 µM
same,Potency,[7],active: 20.6 µM
same,Potency,[2],"inconclusive [inhibitor, partial curve, poor fit]"
CC1=C(CO)C(=O)OC([C@@H](C)C2CC[C@H]3C4C[C@H]5O[C@]56[C@@H](O)C=CC(=O)[C@]6(C)C4CC[C@]23C)C1 (some centres not stated),Potency,[4],active: 10 µM
same,Potency,[5],active: 11.2 µM
same,Potency,[6],active: 5.8 µM
same,Potency,[7],"inconclusive [cytotoxic, partial curve]"
same,Potency,[2],active: 84.9 µM
COC(=O)c1sc(-c2ccc(C(C)(C)C)cc2)cc1NC(=O)c1ccccc1C(=O)O,Potency,[2],active: 50.1 µM
CCC(C)(C)C(=O)O[C@@H]1C[C@@H](C)C=C2C=C[C@H](C)[C@H](CC[C@@H]3C[C@@H](O)CC(=O)O3)[C@H]21,Potency,[3],"inconclusive [inhibitor, partial curve]"
same,Potency,[2],"inconclusive [inhibitor, partial curve, poor fit]"
COc1ccc(CNC(=O)C(C#N)c2nc3ccccc3nc2N2CCCC2)cc1 (configuration not stated),Potency,[2],inactive
CC(=O)Oc1ccc2c(c1C(C)C)CCC1C(C)(C)CCC[C@@]21C (some centres not stated),Potency,[3],"inconclusive [inhibitor, partial curve]"
same,Potency,[2],inactive
O=C1NC(=S)S/C1=C\c1ccc(SCc2ccccc2)o1,Potency,[12],"inconclusive [inhibitor, single point]"
same,Potency,[2],active: 21.3 µM
N#Cc1c(-c2ccccc2)c(C#N)c2nc3ccccc3n2c1N,Potency,[13],"inconclusive [inhibitor, partial curve]"
same,Potency,[2],"inconclusive [inhibitor, partial curve, poor fit]"
O=C(Nc1ccc2nc(-c3ccc4nc[nH]c4c3)[nH]c2c1)c1cccs1,Potency,[12],"inconclusive [inhibitor, single point]"
same,Potency,[2],inactive
